{"source": "PubChem BioAssay AID288", "about": "(DTP/NCI, 2004)", "system": "BDF1 mice, M5076 sarcoma s.c., survival/tumor T/C", "assay": "NCI In Vivo Anticancer Drug Screen. Data for tumor model Sarcoma M5076 (subcutaneous) in B6D2F1 (BDF1) mice", "method": "The antitumor activity of compounds was measured in mice bearing transplantable tumors. Survival or tumor size were measured and the results are expressed as the measurement made in the treated group (T) divided by the measurement made in the vehicle treated control group (C). The tumor model used in this assay is Sarcoma M5076 (subcutaneous) in B6D2F1 (BDF1) mice", "note": "Results filed as inconclusive are left out. Some entries of the source have several records that differ or are many. They are shown here; other results are not. The source may hold further records. The values listed for one entry are repeats (runs, samples, wells, individuals or studies).", "data": [{"smiles": "CC1(C)N=C(N)N=C(N)N1c1ccc(CCCCc2ccc(S(=O)(=O)F)cc2Cl)c(Cl)c1", "values": [{"measurement": "T/C", "setting": "endpoint: median survival time, dose: 15.0 mg/kg/injection, schedule: Q01DX009 (ip), vehicle: other, higher = longer survival", "value": "123 % of control and 156 % of control"}]}, {"smiles": "O=C(O)C1(C(=O)O)CCC1.[NH2-].[NH2-].[Pt+2]", "values": [{"measurement": "T/C", "setting": "endpoint: median survival time, dose: 12.5 mg/kg/injection, schedule: Q02DX030 (ip), vehicle: water, higher = longer survival", "value": "112 % of control and 161 % of control"}]}, {"smiles": "O=c1[nH]c(=O)n(C2CC(O)C(CO)O2)cc1F", "note": "(stereo unspecified)", "values": [{"measurement": "T/C", "setting": "endpoint: median tumor weight (est.), dose: 80.0 mg/kg/injection, schedule: Q02DX011 (ip), vehicle: Klucel (hydroxypropylcellulose) (HPC), higher = larger tumour", "value": "2 % of control and 77 % of control"}]}, {"smiles": "CC(C)CC(NC(=O)C(N)C(C)C)C(=O)NC(CCCCN)C(=O)NC(C(=O)O)C1CC(Cl)=NO1", "note": "(stereo unspecified)", "values": [{"measurement": "T/C", "setting": "endpoint: median survival time, dose: 3.2 mg/kg/injection, schedule: Q01DX010 (ip), vehicle: saline, higher = longer survival", "value": "114 % of control and 154 % of control"}, {"measurement": "T/C", "setting": "endpoint: median survival time, dose: 6.4 mg/kg/injection, schedule: Q01DX010 (ip), vehicle: saline, higher = longer survival", "value": "117 % of control and 159 % of control"}]}, {"smiles": "O=C1c2c(O)ccc(O)c2C(=O)c2c(NCCNCCO)ccc(NCCNCCO)c21", "values": [{"measurement": "T/C", "setting": "endpoint: median tumor weight (est.), dose: 0.5 mg/kg/injection, schedule: Q02DX011 (ip), vehicle: water, higher = larger tumour", "value": "52 % of control and 87 % of control"}]}, {"smiles": "CC/C(=C(/CC)c1ccc(O)cc1)c1ccc(O)cc1", "values": [{"measurement": "T/C", "setting": "endpoint: mean tumor weight, dose: 30.0 mg/kg/injection, schedule: Q02DX011 (ip), vehicle: Klucel (hydroxypropylcellulose) (HPC), higher = larger tumour", "value": "17 % of control and 54 % of control"}]}, {"smiles": "O=C1C=CN(C2OC(CO)C(O)C2O)C(=O)C1", "note": "(stereo unspecified)", "values": [{"measurement": "T/C", "setting": "endpoint: mean tumor weight, dose: 75.0 mg/kg/injection, schedule: Q02DX011 (ip), vehicle: saline, higher = larger tumour", "value": "57 % of control and 93 % of control"}]}, {"smiles": "CC(=O)O[C@H]1C(=O)[C@@]2(C)[C@H]([C@H](OC(=O)c3ccccc3)[C@]3(O)C[C@H](OC(=O)[C@H](O)[C@@H](NC(=O)c4ccccc4)c4ccccc4)C(C)=C1C3(C)C)[C@]1(OC(C)=O)CO[C@@H]1C[C@@H]2O", "values": [{"measurement": "T/C", "setting": "endpoint: median tumor weight (est.), dose: 10.0 mg/kg/injection, schedule: Q02DX011 (ip), vehicle: Klucel (hydroxypropylcellulose) (HPC), higher = larger tumour", "value": "60 % of control and 91 % of control"}]}, {"smiles": "COc1cc2c[n+](C)c3c4cc5c(cc4ccc3c2cc1OC)OCO5", "values": [{"measurement": "T/C", "setting": "endpoint: mean tumor weight, dose: 20.0 mg/kg/injection, schedule: Q02DX011 (ip), vehicle: Klucel (hydroxypropylcellulose) (HPC), higher = larger tumour", "value": "31 % of control and 68 % of control"}]}, {"smiles": "O=c1[nH]c(=O)n(C2CC(O)C(CO)O2)cc1C(F)(F)F", "note": "(stereo unspecified)", "values": [{"measurement": "T/C", "setting": "endpoint: median tumor weight (est.), dose: 75.0 mg/kg/injection, schedule: Q02DX011 (ip), vehicle: saline, higher = larger tumour", "value": "27 % of control and 55 % of control"}]}]}
